Laboratory results published in PMC4336329 (PLoS ONE, 2015).
The whole screen tested about 310,000 compounds, of which about 14,000 (4.5%) showed an effect of 50% or more. Effects have a minus sign here. Some of the results follow.

Molecular target: human ether-à-go-go-related gene (hERG) potassium channel (human, UniProt Q12809)
Experiment: primary screen, population patch clamp on CHO cells stably expressing hERG
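Further: peak tail current of the secondary pulse compared with the same well before compound.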

human ether-à-go-go-related gene (hERG) potassium channel, sequence (Q12809 whole entry, looked up): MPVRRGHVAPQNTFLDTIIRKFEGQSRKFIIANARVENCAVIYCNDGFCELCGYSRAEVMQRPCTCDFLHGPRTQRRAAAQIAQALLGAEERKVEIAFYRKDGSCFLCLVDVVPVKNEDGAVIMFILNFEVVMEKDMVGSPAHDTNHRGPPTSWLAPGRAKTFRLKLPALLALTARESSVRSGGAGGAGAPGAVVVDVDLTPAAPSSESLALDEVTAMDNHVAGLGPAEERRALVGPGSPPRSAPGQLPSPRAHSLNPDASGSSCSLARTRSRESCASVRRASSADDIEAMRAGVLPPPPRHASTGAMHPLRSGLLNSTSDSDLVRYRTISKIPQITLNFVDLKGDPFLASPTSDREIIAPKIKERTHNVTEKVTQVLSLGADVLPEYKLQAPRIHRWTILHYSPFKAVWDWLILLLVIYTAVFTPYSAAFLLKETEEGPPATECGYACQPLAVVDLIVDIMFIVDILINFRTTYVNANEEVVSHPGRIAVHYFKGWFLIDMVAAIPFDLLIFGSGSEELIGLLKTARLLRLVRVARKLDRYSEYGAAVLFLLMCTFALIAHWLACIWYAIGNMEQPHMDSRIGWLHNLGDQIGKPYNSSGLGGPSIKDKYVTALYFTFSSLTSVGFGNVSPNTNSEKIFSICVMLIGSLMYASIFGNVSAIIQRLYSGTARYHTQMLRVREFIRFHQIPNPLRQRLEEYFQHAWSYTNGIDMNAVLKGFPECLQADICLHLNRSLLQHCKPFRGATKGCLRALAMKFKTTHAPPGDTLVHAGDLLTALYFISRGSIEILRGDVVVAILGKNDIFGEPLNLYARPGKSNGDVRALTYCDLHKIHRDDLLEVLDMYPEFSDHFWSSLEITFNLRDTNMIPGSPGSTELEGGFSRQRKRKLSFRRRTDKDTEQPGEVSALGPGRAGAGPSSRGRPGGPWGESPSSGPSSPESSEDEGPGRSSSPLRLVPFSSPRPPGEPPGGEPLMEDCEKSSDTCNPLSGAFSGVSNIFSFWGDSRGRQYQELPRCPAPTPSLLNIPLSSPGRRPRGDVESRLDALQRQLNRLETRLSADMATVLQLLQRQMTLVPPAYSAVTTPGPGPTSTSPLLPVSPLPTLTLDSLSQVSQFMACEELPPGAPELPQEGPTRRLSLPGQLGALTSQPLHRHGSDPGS

Compound	hERG current change (%, negative = inhibition) at 10uM
Cc1ccc(OCCNC(=O)c2cccc(Oc3ccc(C(F)(F)F)cc3[N+](=O)[O-])c2)cc1	10.2%
Cc1c(NC(=S)NC(=O)c2ccccc2Cl)c(=O)n(-c2ccccc2)n1C	33.4%
O=C(Nc1ccon1)c1ccc(OC2CCCC2)cc1	-2.03%
Cc1ccc(C2SCC(=O)N2c2ccccc2)cc1 (stereo not shown)	6.94%
Oc1ccc2oc3c(c2c1C=NCc1ccncc1)CCCC3	8.88%
Cc1ccc(OCC(=O)Nc2nnc(S(=O)(=O)N3CCC(C)CC3)s2)cc1	19.2%
COc1ccc(C)cc1NC(=O)CSc1nnc(-c2ccccn2)n1Cc1ccco1	-15.8%
Cc1cc(Cl)c(OCCn2ccnc2)c(Br)c1.O=C(O)C(=O)O	-5.31%
O=C(O)c1ccc(S(=O)(=O)c2ccc3c(c2)C(=O)N(NC(=O)c2ccccc2)C3=O)cc1	24.3%
O=C(C(Cc1ccccc1)n1cccc1)N1CCN(c2ncccn2)CC1 (stereo not shown)	3.52%
COCCn1c(=S)[nH]c2cc(OC)c(OC)cc2c1=O	11%
COc1cc(C(=O)NCc2ccc3[nH]c(C)cc3c2)cc(OC)c1OC	34.9%
O=c1c2cc(Cl)ccc2nc(-c2ccc(Cl)c(Cl)c2)n1O	17.2%
COc1cccc(S(=O)(=O)NCC(=O)Nc2ccc(C(C)(C)C)cc2)c1	-3.85%
O=C(COC(=O)Cc1ccc(Cl)cc1)NCCc1ccccc1	8.03%
CC(C)Oc1ccc(C2NC(=O)NC2=O)cc1 (stereo not shown)	30.4%
CC(Oc1ccc(Br)cc1)C(=O)Nc1ccncc1 (stereo not shown)	-23.2%
COc1c(O[C@@H]2O[C@H](CO)[C@@H](O)[C@H](O)[C@H]2O)cc2c(c1OC)-c1ccc(SC)c(=O)cc1C(NC(C)=O)CC2 (stereo partly shown)	1.61%
Cc1ccc(S(=O)(=O)N2CCN(C(=O)COC(=O)C3CCC3)CC2)cc1	-0.624%
O=c1[nH]c2c(n(C3CCCCC3)c1=O)CCC2	-13.6%
COc1cc(/C=C2\SC(=S)N(NS(=O)(=O)c3ccccc3)C2=O)ccc1O	-4.08%
O=C(CCc1c[nH]c2ccccc12)N=Nc1c(O)[nH]c2ccccc12	10.6%

Compound	hERG current change (%, negative = inhibition) at 10uM
Cc1cc(NC(=O)CSCC(=O)OCC(=O)c2cccc(Br)c2)no1	0.888%
Cc1ccc(-c2nnc(SCC(=O)N/N=C/c3c(C)nn(-c4ccccc4)c3C)n2-c2ccccc2)cc1	-2.1%
Cc1ccc(-c2cn3c(n2)CCCC3)cc1.Cl	-21.7%
O=C(C[n+]1ccccc1)Nc1c(Cl)cc(Cl)cc1Cl.[Cl-]	13.1%
CC(=O)c1ccc2noc(-c3cccc(C)c3)c2c1	-12.3%
O=C(CCNS(=O)(=O)c1cccc2nsnc12)NCCc1ccccc1	-4.18%
O=C(NCc1ccco1)c1ccc(Cl)cc1[N+](=O)[O-]	-0.845%
O=C(c1cc2cc(Br)ccc2[nH]1)N1CCc2ccccc21	14%
Cc1cccc2nc(CNC(=O)CC3C(=O)NCCN3Cc3cccc(F)c3)cn12 (stereo not shown)	0.146%
CN(CCO)c1nc(N)c(C#N)c(CC#N)c1C#N	7.36%
CCOC(=O)CSc1nnc(-c2ccc(S(=O)(=O)N3CCOCC3)cc2)n1-c1ccccc1	19.5%
COc1ccccc1C1CCN(Cc2ccc(Cl)cc2Cl)CC1	11.1%
Cc1ccc(C(=O)NCCc2csc(-c3cccnc3)n2)cc1	7.66%
CC/C(=N\NC(=O)c1ccc(N2CCCC2=O)cc1)c1ccccc1	-0.274%
CCCCN(C(=O)CNC(=O)c1cccs1)C(C(=O)NC1CCCCC1)c1cccnc1 (stereo not shown)	-5.69%
O=C(Nc1cccc(Cl)c1)N1CCCC1	5.7%
O=C(Nc1ccc([N+](=O)[O-])cc1)Nc1ccon1	2.74%
COc1cc(OC)cc(-c2cc3nc(C)cc(N4CCN(C(=O)c5ccco5)CC4)n3n2)c1	1.49%
Cc1ccc(COCC(CC(C)C)N2CCN(C(=O)c3cccc(C(F)(F)F)c3)CCC2=O)cc1 (stereo not shown)	-25.8%
S=C(NCc1ccc2[nH]c3c(c2c1)CCCC3)Nc1ccccc1Cl	10.3%
CC(C)(C)C1=Nn2c(nnc2-c2ccccc2F)SC1	1.42%
C/C(=N\NC(=O)c1c(C)nc2ccccn12)c1ccc(C(C)(C)C)cc1	3.45%

Compound	hERG current change (%, negative = inhibition) at 10uM
CCOC(=O)C1C(=O)C=C(C)C(C(=O)OCC)C1c1ccc(OC)cc1 (stereo not shown)	-8.31%
CNC(=O)CN(c1ccc(Oc2ccccc2)cc1)S(=O)(=O)c1ccc(C)cc1	13.1%
CCOc1cccc2cc(C(=O)N3CCOCC3)c(=O)oc12	14.6%
COCCN1Cc2cccc(C(=O)Nc3cc(OC)ccc3OC)c2C1=O	-23.7%
Cc1cc(C)c(N(C(=O)Cn2nnc3ccccc32)C(C(=O)NC(C)(C)C)c2ccsc2)c(C)c1 (stereo not shown)	-44.1%
N#CCc1ccc(NS(=O)(=O)c2ccc(N3CCCC3=O)cc2)cc1	-7.66%
O=C(Cc1c(F)cccc1Cl)NC1=NCCS1	-3.44%
O=C(N/N=C/C1=C(N2CCOCC2)C(=C\c2ccccc2)/CC1)Nc1ccccc1	6.96%
COc1ccc(NC(=O)CCN2CCN(c3ccccc3F)CC2)c(OC)c1	-18.1%
C[N+]1(CC(=O)OC2CCCCCCCCCCC2)CCCC1.[I-]	-15.4%
O=S(=O)(Cc1ccc(Cl)cc1)c1ccccc1-c1nnc(-c2ccc(Cl)cc2)o1	0.136%
CCC(C)(C)n1nnnc1C(c1ccncc1)N1CCN(c2cccc(OC)c2)CC1 (stereo not shown)	-17.9%
CCn1c(SCc2nc3ccccc3c(=O)[nH]2)nnc1C(C)NC(=O)c1ccccc1F (stereo not shown)	0.399%
COc1ccc(C(=O)C2CCCN(C(=O)CCc3ccccn3)C2)c(C)c1 (stereo not shown)	-14.7%
CS/C(=N\N(C)C(N)=O)c1ccccc1	10.9%
CCOC(=O)C(C)(C)NS(=O)(=O)c1ccc(Cl)c([N+](=O)[O-])c1	-11.1%
O=[N+]([O-])c1ccc(O)c(/C=N/NC2=NS(=O)(=O)c3ccccc32)c1	12.7%
O=C(NNc1ccccn1)c1ccc(Cl)nc1	1.48%
CNC(=O)CSc1nc(N)c2c3c(sc2n1)CCC3	-31.7%
CCN(CC)c1ccc(NC(=O)c2cc(Cl)ccc2OC)cc1	-10.4%
CC1CCCCC1NC(=O)CCn1ccc2cc(S(=O)(=O)N3CCCC3)ccc21 (stereo not shown)	-0.975%
COC(=O)C1=C(C)NC(C)=C(C(=O)OC)C1c1ccco1	7.42%

Compound	hERG current change (%, negative = inhibition) at 10uM
CCC(C)S(=O)(=O)c1snnc1C (stereo not shown)	22.7%
Cc1ccn2cc(CCNC(=O)c3ccc(Br)o3)nc2c1	-57.5%
CCOC(=O)[C@H]1[C@H]2COc3cc(OC)ccc3[C@@H]2N2C(=O)CN(Cc3ccco3)C(=O)[C@@]12C	0.847%
O=C(NCc1ccco1)c1cccnc1-c1nc2ccccc2s1	-19.6%
CCCCN(C(=O)/C=C/c1ccccc1)C1CCS(=O)(=O)C1 (stereo not shown)	-28.1%
CN(C)C(=O)c1ccc(NC(=O)c2ccccc2-c2ccccc2)cc1	15.9%
CN(C)S(=O)(=O)c1ccc(C(=O)OCC(=O)NCc2ccccc2)cc1	4.97%
CC(C)C(NC(=O)c1cccnc1)C(=O)O (stereo not shown)	5.78%
COc1ccc(Cl)cc1NS(=O)(=O)c1cn(C)nc1C	7.1%
CCOP(=O)(OCC)C(NC(=O)Nc1ccc(C)cc1)C(N)=O (stereo not shown)	6.91%
CC(C)=CCC/C(C)=C/C(N)=O	10.7%
Cc1cc(C)c(C(=O)CSc2nc(C)cc(=O)[nH]2)c(C)c1	10.8%
CCc1ccc(NC(=O)C2CCCN(S(=O)(=O)c3cccnc3)C2)cc1 (stereo not shown)	-10.7%
N#Cc1cccc(NCC(=O)Nc2cccc(S(=O)(=O)N3CCCCC3)c2)c1	-46.7%
N#Cc1nc(-c2cccs2)oc1N1CCOCC1	8.23%
Cc1cc(NC(=O)CSc2nc(CC(C)(C)C)nc3c2c(=O)n(C)c(=O)n3C)no1	4.05%
COC(=O)c1c(CSc2ccc(C)c(C)c2)noc1C(=O)NCc1ccc(OC)cc1	-11.3%
O=C(NCc1ccccc1F)C1CCCN(C(=O)Nc2ccc(F)cc2)C1 (stereo not shown)	-5.03%
CC(C)C(=O)Nc1ccc(C(=O)CN2C(=O)NC3(CCOc4ccccc43)C2=O)cc1 (stereo not shown)	-12.3%
Cn1c(-c2ccccc2)cnc1SCC(=O)N1CCCCC1	-3.68%
COc1cc(OC)c(C(=O)NNC(=S)NC2CCCCC2)cc1OC	16.6%
CCOC(=O)C1(CCCc2ccccc2)CCN(C(=O)Cc2nonc2C)CC1	-51.3%
